The source of these data is FireProtDB (doi:10.1126/science.aai7825).

For this data set the following is noted: Escherichia coli (strain K12); pH 7.5; Thermal; Intensity; HEPES 20mM; transition: 2.

Take “RNA polymerase sigma factor RpoS wild type (sequence left out)”: the Tm – broadly, the temperature at which the thermal transition is half complete – is 44.6 °C.
